{"source": "PubChem BioAssay AID504339", "about": "(National Center for Advancing Translational Sciences (NCATS), 2011)", "note": "Out of some 390,000 compounds screened, about 17,000 (4.4%) were called active. The inconclusive results got no clear call from the source; some entries with a clear call stand among them for comparison. Calls follow the shape of the dose curve; as a rule, active = well fitted inhibition curve with a large enough effect; inconclusive = small, poorly fitted or top-dose-only effect; inactive = no such curve, though single readings can be large or run the other way. A potency beside an inconclusive call is a rough fit, not a confirmed value. Potency is read from the fitted curve at half-maximal effect; tags tell the direction and shape of the fitted curve."}
{"target": "Lysine-specific demethylase 4A (Homo sapiens) (UniProt O75164)", "sequence (O75164 whole entry, looked up, the tested form may be a part)": "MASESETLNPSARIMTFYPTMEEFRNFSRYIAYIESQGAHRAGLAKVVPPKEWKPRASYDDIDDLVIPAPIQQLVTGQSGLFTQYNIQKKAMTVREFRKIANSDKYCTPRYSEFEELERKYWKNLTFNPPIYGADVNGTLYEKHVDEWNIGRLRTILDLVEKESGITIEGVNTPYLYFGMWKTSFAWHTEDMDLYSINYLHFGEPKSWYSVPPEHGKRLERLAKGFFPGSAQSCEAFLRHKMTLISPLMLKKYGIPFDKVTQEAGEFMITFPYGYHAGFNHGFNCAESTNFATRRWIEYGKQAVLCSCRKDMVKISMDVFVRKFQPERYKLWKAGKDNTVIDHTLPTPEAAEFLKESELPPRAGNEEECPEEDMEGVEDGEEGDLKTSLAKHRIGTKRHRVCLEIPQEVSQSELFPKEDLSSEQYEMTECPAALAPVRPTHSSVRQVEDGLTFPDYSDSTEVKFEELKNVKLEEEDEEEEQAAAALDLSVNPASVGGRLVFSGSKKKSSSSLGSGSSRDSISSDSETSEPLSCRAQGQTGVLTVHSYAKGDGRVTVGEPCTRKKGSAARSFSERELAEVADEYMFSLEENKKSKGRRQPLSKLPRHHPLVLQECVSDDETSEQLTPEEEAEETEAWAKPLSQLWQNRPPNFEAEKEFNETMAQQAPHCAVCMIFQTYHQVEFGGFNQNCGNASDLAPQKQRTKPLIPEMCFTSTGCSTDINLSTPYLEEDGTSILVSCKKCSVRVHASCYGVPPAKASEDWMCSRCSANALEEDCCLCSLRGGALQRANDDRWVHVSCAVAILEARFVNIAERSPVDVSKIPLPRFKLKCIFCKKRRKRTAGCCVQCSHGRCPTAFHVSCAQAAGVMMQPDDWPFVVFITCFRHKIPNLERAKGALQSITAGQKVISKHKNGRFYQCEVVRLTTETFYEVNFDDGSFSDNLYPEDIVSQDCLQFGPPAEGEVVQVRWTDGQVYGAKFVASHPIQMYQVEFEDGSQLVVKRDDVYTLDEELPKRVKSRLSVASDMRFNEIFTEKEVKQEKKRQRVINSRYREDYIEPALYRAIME", "test": "qHTS Assay for Inhibitors of JMJD2A-Tudor Domain; also: nearly all actives have a fitted effect of over 50% in size", "settings": "AlphaScreen JMJD2A-Tudor / H3K4me3 peptide binding; series mostly up to 114 µM"}
{"compound": "Cc1cccc(N2CCN(C(=O)CCC(=O)N3Cc4ccccc4Oc4ncccc43)CC2)c1C", "Potency": "inconclusive: 56.2 µM [inhibitor, partial curve]"}
{"compound": "O=C1/C(=C\\c2ccco2)SC(=S)N1C1CCS(=O)(=O)C1", "note": "(configuration not stated)", "Potency": "active: 56.2 µM"}
{"compound": "COc1ccc(C(=O)N2CCc3c([nH]c4ccccc34)C2C(F)(F)F)cc1", "note": "(configuration not stated)", "Potency": "inconclusive: 50.1 µM [inhibitor, partial curve]"}
{"compound": "Cc1ccc(/C=N/n2c(-c3cccs3)n[nH]c2=S)cc1", "Potency": "active: 50.1 µM"}
{"compound": "COc1ccccc1/C=C1/C(=O)N(c2ccc([N+](=O)[O-])cc2)N=C1C", "Potency": "inconclusive: 35.5 µM [inhibitor, full curve, poor fit]"}
{"compound": "CCOC(=O)C1=C(N)Oc2c(oc(CO)cc2=O)C1c1ccc(F)c(F)c1", "note": "(configuration not stated)", "Potency": "inconclusive: 25.1 µM [inhibitor, partial curve]"}
{"compound": "COc1cccc(-c2cc(C(F)(F)F)n3ncc(S(=O)(=O)c4ccccc4)c3n2)c1", "Potency": "inactive"}
{"compound": "N#CC1=C(N)Oc2cc(Nc3ccccc3)ccc2C1c1ccncc1", "note": "(configuration not stated)", "Potency": "active: 79.4 µM"}
{"compound": "COc1ccc(/C=C(\\C#N)c2cc(OC)c(OC)cc2[N+](=O)[O-])cc1", "Potency": "inconclusive: 20 µM [inhibitor, full curve, poor fit]"}
{"compound": "Cc1ccc(N/N=C(\\C#N)C(=O)c2ccsc2)cc1", "Potency": "active: 35.5 µM"}
{"compound": "COc1ccc(OC)c(CNC(=O)CCCc2cn(C)c3ccccc23)c1", "Potency": "inconclusive: 44.7 µM [inhibitor, partial curve]"}
{"compound": "COc1cc(/C=N/NC(=O)c2ccc(N)cc2)ccc1OC(=O)c1cccc(C)c1", "Potency": "inconclusive: 31.6 µM [inhibitor, partial curve]"}
{"compound": "COc1cc2c(cc1OC)CN(c1ccc3ccccc3n1)CC2", "Potency": "inactive"}
{"compound": "Cc1ccc2c(c1)sc1nc(-c3cc4ccccc4oc3=O)cn12", "Potency": "inactive"}
{"compound": "CCN(CC)c1ccc(C(=O)N2CCN(Cc3ccccc3)CC2)cc1", "Potency": "inconclusive: 25.1 µM [inhibitor, full curve]"}
{"compound": "COc1ccccc1OCC(O)CN1C(=O)NC(C)(C)C1=O", "note": "(configuration not stated)", "Potency": "inconclusive: 20 µM [inhibitor, full curve]"}
{"compound": "CN(CC(=O)Nc1ccccc1Br)C(=O)c1cc(S(=O)(=O)N(C)C)ccc1N1CCCC1", "Potency": "inactive"}
{"compound": "COc1c(C)cc(C(=O)C2CCCN(Cc3cnc(N4CCOCC4)s3)C2)cc1C", "note": "(configuration not stated)", "Potency": "inconclusive: 39.8 µM [inhibitor, partial curve]"}
{"compound": "CCOC(=O)c1ccccc1NC(=O)CN1C(=O)CC(c2ccco2)Sc2ccccc21", "note": "(configuration not stated)", "Potency": "inconclusive: 39.8 µM [inhibitor, partial curve]"}
{"compound": "CCOC(=O)Cn1c(CN(Cc2ccccc2)Cc2ccccc2)nc2c1c(=O)n(C)c(=O)n2C", "Potency": "inconclusive: 22.4 µM [inhibitor, single point]"}
{"compound": "O=C(O)c1ccc(N/N=C/c2ccc(-c3ccc(Br)cc3)o2)cc1", "Potency": "inconclusive: 100 µM [inhibitor, single point]"}
{"compound": "COCC(C)n1c(C)cc(C(=O)COC(=O)c2c(C)nn(-c3ccccc3)c2C)c1C", "note": "(configuration not stated)", "Potency": "inconclusive: 56.2 µM [inhibitor, partial curve]"}
{"compound": "COCCn1nnnc1C(c1cccs1)N1CCN(c2nc3ccccc3s2)CC1", "note": "(configuration not stated)", "Potency": "inactive"}
{"compound": "CCOC(=O)C1(Cc2ccc(Cl)cc2)CCN(C(C)Cc2ccc(O)c(OC)c2)CC1", "note": "(configuration not stated)", "Potency": "inconclusive: 63.1 µM [inhibitor, partial curve, poor fit]"}
{"compound": "Cc1nnc(NS(=O)(=O)c2ccc(N=Nc3ccc(N)nc3N)cc2)s1", "Potency": "active: 50.1 µM"}
{"compound": "Cc1n[nH]c(C)c1Sc1ccccc1N=Cc1cc(Cl)cc([N+](=O)[O-])c1O", "Potency": "inconclusive: 89.1 µM [inhibitor, partial curve]"}
{"compound": "CC(C)[C@H](NC(=O)c1ccco1)C(=O)OCc1cc(=O)n2c(n1)sc1ccccc12", "Potency": "inconclusive: 44.7 µM [inhibitor, partial curve]"}
{"compound": "S=c1[nH]nc(COc2ccccc2)n1/N=C/c1cccs1", "Potency": "inconclusive: 70.8 µM [inhibitor, single point]"}
{"compound": "CCN(CC)S(=O)(=O)c1ccc(/C=C/C(=O)OCC(=O)NNC(=O)c2ccc(OC)cc2)cc1", "Potency": "inactive"}
{"compound": "O=C1NC2(CCCCC2)C(=O)N1CCS(=O)(=O)Oc1ccccc1", "Potency": "inactive"}
{"compound": "CS(=O)(=O)c1ccc2nc(NC(=O)Nc3cccc(Cl)c3)sc2c1", "Potency": "inconclusive: 50.1 µM [inhibitor, partial curve]"}
{"compound": "COc1ccccc1CNC(=O)C1CCCN(c2nn3cc(-c4ccc(F)cc4)nc3s2)C1", "note": "(configuration not stated)", "Potency": "inactive"}
{"compound": "CN(C)c1ccc(CNS(=O)(=O)c2ccc3c(c2)NC(=O)CS3)cc1", "Potency": "inconclusive: 56.2 µM [inhibitor, partial curve]"}
{"compound": "CC1=NN(c2ccc([N+](=O)[O-])cc2)C(=O)C1", "Potency": "inconclusive: 63.1 µM [inhibitor, partial curve, poor fit]"}
{"compound": "O=C(C1CCCN(S(=O)(=O)c2cccc3nonc23)C1)N1CCN(c2cccc(Cl)c2)CC1", "note": "(configuration not stated)", "Potency": "inconclusive: 50.1 µM [inhibitor, partial curve]"}
{"compound": "O=S1(=O)[C@H]2C[C@@H]3C=C[C@@]2(CN1Cc1ccc(Cl)cc1)O3", "Potency": "inactive"}
{"compound": "O=C(CN1CCSc2ccccc21)N1CCN(c2ccccc2)CC1", "Potency": "inconclusive: 79.4 µM [inhibitor, partial curve]"}
{"compound": "CCn1cc(C2N3CC4(CC)CN2CC(CC)(C3)C4=O)c2ccccc21", "note": "(configuration not stated)", "Potency": "inconclusive: 17.8 µM [inhibitor, full curve]"}
{"compound": "COc1ccccc1N1CCN(C(=O)c2ccc(COc3cccc4c3OC(C)(C)C4)cc2)CC1", "Potency": "inconclusive: 20 µM [inhibitor, full curve, poor fit]"}
{"compound": "COc1ccc(C2=CC3=C(Br)C(=O)C(C)(O)C(=O)C3=CO2)cc1", "note": "(configuration not stated)", "Potency": "inconclusive: 44.7 µM [inhibitor, partial curve]"}
{"compound": "O=C(/C=C/c1ccco1)Nc1cccc(C(=O)Nc2ccccc2C(=O)O)c1", "Potency": "active: 79.4 µM"}
{"compound": "c1ccc(-c2nccc(-c3ccco3)n2)nc1", "Potency": "inconclusive: 89.1 µM [inhibitor, single point]"}
{"compound": "CCOC(=O)C1=C(C)N(c2ccc(C)cc2)C(=O)/C1=C\\c1cccs1", "Potency": "active: 12.6 µM"}
{"compound": "C#CCOCCOCCOCCNc1nc(N2CCN(C(=O)CCCCCCCCCCNC(=O)[C@@H](CCC(=O)O)n3cc(CCCCCN)nn3)CC2)nc(N2CCN(C(=O)CCCCCCCCCCNC(=O)[C@H]([C@@H](C)CC)n3cc(CCCCCN)nn3)CC2)n1", "Potency": "inconclusive: 35.5 µM [inhibitor, partial curve]"}
{"compound": "CC(C)(C)CC(=O)Nc1nnc2n1CCS2", "Potency": "inactive"}
{"compound": "O=[N+]([O-])c1ccc(-c2nc(NCC3CCCO3)c3ccccc3n2)cc1", "note": "(configuration not stated)", "Potency": "inconclusive: 17.8 µM [inhibitor, partial curve, poor fit]"}
{"compound": "COc1ccc(Cn2ccnc2SCC(=O)Nc2ccc(C)cc2C)cc1", "Potency": "inconclusive: 50.1 µM [inhibitor, partial curve]"}
{"compound": "COc1ccccc1N1CCN(C(=O)/C=C/c2ccccc2)CC1", "Potency": "inconclusive: 79.4 µM [inhibitor, partial curve]"}
{"compound": "O=S1(=O)C=C(SCc2cccc(Cl)c2)Nc2ccccc21", "Potency": "inactive"}
{"compound": "COc1ccc(-c2cccc3c2NC(=O)C3=O)cc1OC", "Potency": "inconclusive: 17.8 µM [inhibitor, full curve]"}
{"compound": "COc1cccc(C(=O)/C=C/c2ccc(N3CCCCC3)c([N+](=O)[O-])c2)c1", "Potency": "active: 39.8 µM"}
{"compound": "CC(C)(C)NC(=O)NC(=O)COC(=O)CCCc1c[nH]c2ccccc12", "Potency": "inconclusive: 44.7 µM [inhibitor, full curve, poor fit]"}
{"compound": "CCCCNC(=S)N/N=C1\\CCCCc2ccccc21", "Potency": "inconclusive: 22.4 µM [inhibitor, partial curve]"}
{"compound": "CCN(CC)S(=O)(=O)c1ccc(N/N=C/c2ccc(OC)c(OC)c2OC)nc1", "Potency": "inconclusive: 39.8 µM [inhibitor, single point]"}
{"compound": "O=C(O)CN1C(=O)/C(=C\\c2cccc(OCc3ccccc3)c2)SC1=S", "Potency": "inconclusive: 17.8 µM [inhibitor, partial curve]"}
{"compound": "Cc1cc(C)cc(NC(=O)C2CCC(CNC(=O)[C@@H]3Cc4ccccc4CN3)CC2)c1", "note": "(some centres not stated)", "Potency": "inactive"}
{"compound": "CCOc1ccc(C(=O)Nc2nnc(S(=O)(=O)N(CC)c3ccccc3C)s2)cc1", "Potency": "inactive"}
{"compound": "CCn1ccnc1CNCc1cn(-c2cc(C)ccc2C)nc1-c1ccccc1", "Potency": "inconclusive: 56.2 µM [inhibitor, partial curve, poor fit]"}
{"compound": "O=C(N/N=C/c1ccccc1C(=O)O)c1cccc(S(=O)(=O)N2CCOCC2)c1", "Potency": "inactive"}
{"compound": "CCn1cc(C(=O)O)c(=O)c2cnc(N3CCN(C(=S)NC(=O)c4ccccc4)CC3)nc21", "Potency": "inconclusive: 6.31 µM [inhibitor, full curve, poor fit]"}
{"compound": "O=C(CCS(=O)(=O)c1cccs1)Nc1ccc(C(=O)Nc2cccc(Cl)c2)cc1", "Potency": "inactive"}
{"compound": "O=C(OCc1ccccc1C(F)(F)F)c1cc([N+](=O)[O-])ccc1N1CCOCC1", "Potency": "inconclusive: 28.2 µM [inhibitor, partial curve]"}
{"compound": "C/C=C\\C=C/C(=O)Nc1cccc(C2=NOC3(C2)C[C@@H](C(N)=O)N(C(=O)CCCCC)C3)c1", "note": "(some centres not stated)", "Potency": "active: 79.4 µM"}
{"compound": "CC(NC(=O)c1nn(C)c2c1CSc1ccccc1-2)c1ccccc1", "note": "(configuration not stated)", "Potency": "inactive"}
{"compound": "O=C(Nc1ccc(SC(F)F)cc1)c1cc(-c2cccs2)on1", "Potency": "inactive"}
{"compound": "CCOc1cc(/C=C/c2nc3cc(C)c(C)cc3s2)ccc1OCC(=O)N1CCOCC1", "Potency": "inactive"}
{"compound": "CC(C)(C)OC(=O)[C@H](Cc1ccccc1)NC(=O)c1nc[nH]c1C(=O)N1CCc2ccccc2C1", "Potency": "inconclusive: 22.4 µM [inhibitor, full curve, poor fit]"}
